According to PubChem BioAssay (NCI):
Several values for one entry are separate records, joined by “and”; a condition that tells them apart may be missing. Equal values may be shown once.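 Each compound was tested at five concentrations against cells in 96-well plates for 48 hours. GI50: concentration for 50% inhibition of growth. TGI denotes the concentration required for complete inhibition of growth.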

system: NCI-H322M lung; assay: DTP human tumour cell line panel, 48 h

SMILES	GI50	TGI [µM]
CC(=O)O[C@H]1C(=O)[C@@]2(C)C(C(OC(=O)c3ccccc3)[C@]3(O)CC(OC(=O)[C@H](OC(=O)CCC(=O)O)C(NC(=O)c4ccccc4)c4ccccc4)C(C)=C1C3(C)C)C1(OC(C)=O)COC1C[C@@H]2O (stereo partly drawn)	< 0.0164 µM and 0.0371 µM	> 100
COc1nc(N=P(c2ccccc2)(c2ccccc2)c2ccccc2)cc(=O)[nH]1	–	> 100
c1ccc(-c2cn3c(nc4ccccc43)c(-c3ccccc3)n2)cc1	–	> 100
CCCC(=O)OCC1OC(n2cnc3c(=S)nc[nH]c32)C(OC(=O)CCC)C1OC(=O)CCC (stereo not drawn)	6.42 µM	> 100
COc1cc(Nc2nc3ccccc3nc2-c2cccs2)cc(OC)c1OC	–	> 100
O=C(Nc1ccncc1)C(=O)c1cn(S(=O)(=O)c2cccc(F)c2)c2ccccc12	31.6 µM	> 100
CCOCC(=O)N[C@H]1CCc2cc(OC)c(OC)c(OC)c2-c2ccc(OC)c(=O)cc21	–	2.1
COC1(C)CP(=O)(OC(C)C)CC(C)=C1Cl (stereo not drawn)	–	55.6
Cc1cc(Cl)cc2c1NC(=O)C2(O)CC(=O)c1ccco1 (stereo not drawn)	–	> 100
Cc1cc(S(=O)(=O)Nc2nc(N)n(-c3ccccn3)n2)c(S)cc1Cl	–	> 100
CC(=O)c1sc2c(c1OC(=O)c1ccco1)c(=O)n(-c1ccccc1)c(=S)n2-c1ccccc1	–	63.5
COC(=O)Nc1nc2ccc(Oc3ccc(NC(=O)Nc4cc(C(F)(F)F)ccc4F)cc3)cc2s1	> 25 µM	> 25
COc1ccccc1NC(=S)Nc1cc(C)cc(C)n1	–	> 100
Cc1nc(-c2cc3c(ccc4ccccc43)oc2=O)cs1	–	> 100
O=C(O)CCNC1CCCCC1	> 100 µM	> 100
CC(C)(C)/C(=N\Nc1nc2ccccc2[nH]1)c1ccccn1	–	> 100
O=C(O)CCSC(=O)Nc1ccc([N+](=O)[O-])cc1	–	> 100
C/C(CC(=O)Nc1cc(C)ccc1C)=N\NC(=O)c1ccncc1	–	> 100
C=C(C[C@](O)(C(=O)/C=C/c1ccc(Cl)cc1)C(=O)OC)c1ccccc1	2.44 µM	10
CCCCCCCCCCCCN(CC(O)C(O)C(OC1OC(CO)C(O)C(O)C1O)C(O)CO)C(=O)CCCCCCCCCCC (stereo not drawn)	–	40.6
Nc1nc(N(Cc2ccccc2)c2ccccc2)c2cn[nH]c2n1	7.28 µM	> 100
COc1ccc2c(c1)C(=O)c1c-2n(CCCn2ccnc2)c(=O)c2cc([N+](=O)[O-])ccc12	< 0.0164 µM	> 28.9
O=C(N/C(=C\c1cccc([N+](=O)[O-])c1)c1nc2ccc([N+](=O)[O-])cc2[nH]1)c1ccccc1	–	> 100
CCOC(=O)c1c(NC(=O)c2cccs2)sc2c1CCC2	–	> 100
O=c1[nH]c(=O)n(CCOc2ccccc2)cc1Nc1ccccc1	–	> 100

SMILES	GI50	TGI [µM]
CCc1ccccc1NC(=O)C1=C(C)NC(C)=C(C(=O)Nc2ccccc2CC)C1c1ccc2c(c1)OCO2	–	> 100
CC(C)(C)c1cc(CCC(=O)Nc2ccc(Cl)cc2)nc(NC#N)n1	–	> 100
CC(C)(C)C(=O)OCOP(=O)(OCOC(=O)C(C)(C)C)OCC1OC(n2ccc(=O)[nH]c2=O)C(N=[N+]=[N-])C1O (stereo not drawn)	–	19
O=S(=O)(NC1=NCCN1C(=S)SN1CCn2c1nsc2=S)c1cccc(Cl)c1	13.3 µM	35.4
CS(=O)(=O)CCNCc1ccc(-c2ccc3ncnc(Nc4ccc(OCc5ccccc5)cc4)c3c2)o1	2.63 µM	> 25
CCOC(=O)/C(=C\c1ccccc1)C(=O)O	–	> 100
O=c1oc2ccccc2cc1-c1csc(Nc2ccc(F)cc2)n1	–	16.1
Oc1c2cc(Cl)cc1COCc1cc(Cl)cc(c1O)COCc1cc(Cl)cc(c1O)COC2	–	> 100
O=C1CSSCC(=O)Nc2ccccc2N1	–	> 100
O=C(CC1(O)C(=O)Nc2c(Cl)ccc(Cl)c21)c1ccc(F)cc1 (stereo not drawn)	–	> 100
COc1ccc(C(=O)c2sc(N(C)C)nc2-c2ccccc2)cc1	–	> 100
Cc1ccc(C(=O)NC(C)C)cc1-c1ccc(C(=O)NCC2CC2)cc1	> 25 µM	> 25
O=S(=O)(SC1=NCCN1)c1ccc2ccccc2c1	–	> 100
CCCn1c(=S)sc2c1nc(C)n1c(Nc3ccccc3)nnc21	4.3 µM	57.3
O=c1c2ccccc2[nH]c2c(Cl)cc(Cl)c(NC3CCCCC3)c12	–	> 100
NCCCCC(NC(=O)C(N)Cc1ccc(O)cn1)C(=O)O (stereo not drawn)	–	> 100
CC(C)(CO)N1CCN(C(=S)Nc2ccccc2)CC1	–	> 100
N#CC12CNCC1CN=N2 (stereo not drawn)	–	> 100
Cc1ccc(-c2nc3nc(-c4ccccc4)nc(N4CCCNCC4)c3o2)cc1	1.81 µM	3.2
CCCC1N2CCCCC2[C@@H]2c3[nH]c4ccccc4c3CCN12 (stereo partly drawn)	–	> 100
CC(SC(=S)N1CCOCC1)c1cc2oc(=O)n(C)c2cc1Cl (stereo not drawn)	–	> 100
Cc1ccc(S(=O)(=O)c2ccsc2NC(=O)C(F)(F)F)cc1	–	> 100
COC1(OC)CC2OC1C1N=NN(C(=O)OC(C)(C)C)C21 (stereo not drawn)	–	> 100
Nc1nc(I)nc2c1ncn2C1OC(COS(N)(=O)=O)C(O)C1O (stereo not drawn)	–	< 0.0159
O=C(Cn1c2c(c3ccccc31)CCCC2)N1CCCC1	–	> 100
